# Assay results as given in PubChem BioAssay AID1745853 (National Center for Advancing Translational Sciences (NCATS), 2022).
# “And” between values parts separate entries of the source, which are not always exact repeats. Identical values can stand only once. Some of the results follow. These are further read-outs of the screen, such as a control signal, another cell line or another target. No call is given for them.
# Legend:
# Experiment in all cases: Primary Screen for Target Class Profiling of Small Molecule Inhibitors of Methyltransferases
# [1] = target: Glycine N-methyltransferase (Homo sapiens) (UniProt Q14749); conditions: purified enzyme, MTase-Glo SAH luminescence; measured here: GNMT inhibition; at 40 µM; stronger effect = lower value
# How it was run: (§1)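 Each enzyme was reacted with SAM and its substrate, with compounds tested once at 40 uM; SAH formed was read by MTase-Glo luminescence.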
# [2] = target: Guanidinoacetate N-methyltransferase (Homo sapiens) (UniProt Q14353); conditions: purified enzyme, MTase-Glo SAH luminescence; measured here: GAMT inhibition; at 40 µM; stronger effect = lower value
# How it was run: as §1
# [3] = target: Histamine N-methyltransferase (Homo sapiens) (UniProt P50135); conditions: purified enzyme, MTase-Glo SAH luminescence; measured here: HNMT inhibition; at 40 µM; stronger effect = lower value
# How it was run: as §1
# [4] = target: Nicotinamide N-methyltransferase (Homo sapiens) (UniProt P40261); conditions: purified enzyme, MTase-Glo SAH luminescence; measured here: NNMT inhibition; at 40 µM; stronger effect = lower value
# How it was run: as §1
# [5] = target: Phenylethanolamine N-methyltransferase (Homo sapiens) (UniProt P11086); conditions: purified enzyme, MTase-Glo SAH luminescence; measured here: PNMT inhibition; at 40 µM; stronger effect = lower value
# How it was run: as §1
# On the % scale 0 is the no-effect control and ±100 the full control effect.
Compound,"activity change, negative = inhibition [1]","activity change, negative = inhibition [2]","activity change, negative = inhibition [3]","activity change, negative = inhibition [4]","activity change, negative = inhibition [5]"
CC(=O)O[C@H]1C[C@@](O)(C(C)C)[C@@H]2[C@@H](OC(=O)c3ccc(O)cc3)CC(C)=CC[C@@]12C,0%,5.74%,11.5%,-7.73%,-1.58%
CCCn1c(=O)c2ccc(C(=O)NC3CCCCC3)cc2n2c(SCc3ccccc3)nnc12,5.88%,0%,7.46%,1.95%,5.58%
CCCn1c(=O)c2ccc(Cl)cc2n2c(=O)n(CC(=O)NCc3cccc(OC)c3)nc12,-4.25%,2.32%,-1.61%,-1.61%,-2.13%
O=C(CC1C(=O)NCCN1Cc1cccc(Oc2ccccc2)c1)NCc1ccoc1 (stereo not given),-43%,-8.82%,-3.41%,-8.59%,-4.99%
CC(CNC(=O)CCc1nnc2n(Cc3ccccc3Cl)c(=O)c3ccccc3n12)c1ccccc1 (stereo not given),-6.7%,4.85%,2.84%,-1.96%,-3.51%
CN(Cc1ccccc1)C(=O)c1cc2n(n1)CC(C)(C(=O)NC1CCCCCC1)N(C)C2=O (stereo not given),0.074%,0.611%,-3.55%,0.34%,-5.21%
COc1cccc(CNC(=O)N2Cc3c(sc4c3CCCC4)-n3cccc3C2c2cc(F)cc(F)c2)c1 (stereo not given),1.44%,0%,4.15%,2.25%,-11%
Cc1cccc(NC(=O)CSc2nnc3n(C)c(=O)c4ccc(C(=O)NC5CCCCC5)cc4n23)c1,0.849%,0%,1.72%,5.17%,3.02%
O=C(Cn1nc2n(Cc3ccc(F)cc3)c(=O)c3ccccc3n2c1=O)NC1CCCCC1,5.25%,0%,5.37%,1.95%,2.46%
CC(=O)NC[C@H]1CN(c2ccc(N3CCOCC3)c(F)c2)C(=O)O1,5.71% and 2.79%,15.2% and 5.31%,12.5% and 14.4%,-1.92% and -8.17%,2.32% and 5.15%
CC(C)Cn1c(=O)c2ccc(C(=O)NC3CCCC3)cc2n2c(=O)n(Cc3ccccc3)nc12,-2%,3.83%,-1.52%,2.83%,1.85%
COCCNC(=O)CCc1nnc2n(Cc3ccc(F)cc3)c(=O)c3ccccc3n12,-11.8%,4.3%,-2.07%,3.81%,-2.59%
COc1cccc(S(=O)(=O)N2C[C@@H](F)C[C@H]2C(=O)N2CCc3ccccc3C2)c1,-7.57%,-3.16%,-0.324%,-10.1%,-8.01%
CN1C(=O)c2cc(C(=O)NCc3ccccc3Cl)nn2CC1(C)C(=O)NC1CCCCC1 (stereo not given),-0.449%,-0.72%,2.55%,0.157%,-0.704%
[Li+],3.14%,8.31%,3.86%,-4.85%,7.84%
Cn1sc(=O)n(Cc2ccccc2)c1=O,2.4%,3.14%,4.88%,-8.93%,1.61%
O=C(CCn1ccc(=O)[nH]c1=O)N[C@H](c1cccs1)C1CC(O)C1 (stereo not given in full),0.095%,6.36%,-2.1%,3.66%,2.82%
CCCNC(=O)C1COC2(CCN(C(=O)Cc3ccccc3)CC2)N1C(=O)c1cccc(C)c1 (stereo not given),-2.65%,-1.14%,0.131%,4.57%,4.73%
COC[C@H]1CCCN1Cc1nc(C2(O)CCN(C(=O)CC(C)(C)C)CC2)cs1,-5.86%,-5.31%,-2.35%,-7%,12%
O=C(c1cc(-c2ccc(F)cc2)n[nH]1)N1CCC(OCC2CC2)C1 (stereo not given),-14.6%,-6.34%,-4.08%,-14.8%,-11.7%
Cc1ccc(CN2C(=O)c3cc4occc4n3CC2(C)C(=O)NC2CCCCCCC2)cc1 (stereo not given),-2.33%,0%,2.63%,-5.99%,-2.56%
O=C(Cn1c(=O)oc2cc(S(=O)(=O)NCc3ccccc3)ccc21)N1CCCCC1,-3.52%,0%,4.36%,7.89%,-2.94%
CCOC(=O)C(C)Oc1ccc2c(-c3ccccc3)cc(=O)oc2c1 (stereo not given),-2.37%,0%,6.94%,-8.24%,-10.1%
CCCCNc1nc2c(-c3ccc(OC)cc3)nnn2c2ccccc12,0.441%,1.11%,-1.12%,3.36%,-2.11%
CCNC(=O)N1CCC[C@@H](O)[C@H](NC(=O)c2ccc(OCc3c(C)noc3C)cc2)C1,-5.26%,0.887%,-0.595%,-0.615%,-1.03%
COc1ccccc1N1CCN([C@@H]2[C@H](O)[C@H](CO)O[C@@H]2CNC2CCCCC2)CC1,-5.41%,-8.42%,-4.81%,-8.87%,-8.28%
CCOc1ccc(CN2C(=O)c3cc(-c4cccs4)nn3CC2(C)C(=O)NC2CCCCC2)cc1 (stereo not given),-2.83%,5.98%,2.31%,5.79%,-0.144%
OC[C@@]1(O)CO[C@H](OC[C@H]2O[C@@H](OC(CCCCc3ccc(O)cc3)CCc3ccc(O)cc3)[C@H](O[C@H]3OC[C@](O)(CO)[C@H]3O)[C@@H](O)[C@@H]2O)[C@@H]1O (stereo not given in full),0%,7.18%,9.48%,-5.3%,6.96%
COC(=O)c1ncn2c1C(=O)N(c1cc(C)ccc1C)C(C)(C(=O)NC1CCCC1)C2 (stereo not given),1.29%,1.98%,-8.24%,0.663%,-3.44%
